The values that follow come from PubChem BioAssay (NCI).

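Results reflect a 48-hour exposure of cells in 96-well plates to compound at five concentrations. GI50 = concentration required for 50% inhibition of growth. TGI: concentration producing complete growth inhibition.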

The assay concerns NCI-H322M lung. Nature of the assay: NCI-60 cell line screen, 48 h.

Consider `c1ccc(-c2n(Cc3ccc4ccccc4c3)c3c4ccccc4c4ccccc4c3[n+]2Cc2ccc3ccccc3c2)cc1`, for which the GI50 is 645 nM and the TGI was determined as 2030 nM.
In the same order, the values of `CCc1cccc2c3c(sc12)C(c1ccc(F)cc1)C(C#N)=C(/N=C/c1ccc(Cl)cc1)O3` (centres undefined) are 663 nM and greater than 100000 nM.
